Over roughly 33,000 sequences, “E-score (-0.5 to 0.5)” has its median near -0.017; the highest 2% begin near 0.3. The list shows a part of the results.
target: T1, Sut1 (UniProt P53032); assay: PBM E-score (8-mer binding enrichment) (E-score (-0.5 to 0.5)); higher = stronger / more preferred TF binding; most listed sequences are background and not binding sites; conditions: protein concentration: 200 nM; construct: GST-full length
T1 sequence: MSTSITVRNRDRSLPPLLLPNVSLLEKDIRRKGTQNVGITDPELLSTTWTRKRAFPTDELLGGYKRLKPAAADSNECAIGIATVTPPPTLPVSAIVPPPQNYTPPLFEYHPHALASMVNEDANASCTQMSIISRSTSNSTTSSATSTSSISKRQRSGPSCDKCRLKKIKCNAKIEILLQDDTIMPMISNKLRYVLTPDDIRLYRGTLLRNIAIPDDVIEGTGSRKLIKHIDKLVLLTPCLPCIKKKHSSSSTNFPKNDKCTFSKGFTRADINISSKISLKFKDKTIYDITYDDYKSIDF
Procedure, shortened: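 For each ungapped eight-base word taken together with its reverse complement, the Universal PBM Analysis Suite assigned an E-score. Binding data came from GST-tagged yeast transcription factors, applied at about 100-200 nM, on universal all-10-mer Agilent arrays made double-stranded by primer extension. Fluorescent anti-GST marked bound protein, and scans were normalised with masliner.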

| Sequence | PBM E-score |
| --- | --- |
| GCTATCCA | -0.00457 |
| GCGAGAGA | -0.224 |
| ATGTGGTA | -0.0495 |
| CGTTAGAG | -0.0163 |
| GAGGACAC | -0.0716 |
| ACCTCCAC | 0.0587 |
| ACTGATCT | 0.0362 |
| ATCGGGTC | -0.0782 |
| CAGCACTC | -0.0304 |
| ATTCTTAA | -0.0164 |
| CCGGGAAC | 0.0019 |
| CCCTTGCC | -0.304 |
| CCACCGGC | 0.0248 |
| CATCGCCG | 0.112 |
| ACCCCTTC | -0.251 |
| GCGACACC | 0.00101 |
| GATTTTGC | 0.00508 |
| CGTCTTTA | 0.215 |
| GATTTAAA | 0.194 |
| CGTCTTGC | -0.179 |
| GCCCTTTA | -0.259 |
| GCTTGTTA | 0.109 |
| ACCACCAT | -0.0419 |
| AATAAGCT | 0.111 |
| GCTATAGC | -0.173 |

| Sequence | PBM E-score |
| --- | --- |
| CCCCAGTC | -0.193 |
| CAGCAATA | 0.0212 |
| AAGCTAGG | -0.0407 |
| TACTTTAA | 0.103 |
| ACAAGGGG | -0.221 |
| TTCACGAA | -0.125 |
| ATGGCTTA | -0.09 |
| ACCTATCG | 0.092 |
| GGCCGATA | -0.152 |
| ATCAAGAT | 0.158 |
| AGGGCTTC | -0.139 |
| GCCATTAC | -0.0938 |
| CCAATATA | 0.0675 |
| CATTCCGG | 0.194 |
| CAGGCCCC | -0.367 |
| AGCATAGG | -0.172 |
| ACACTAGA | 0.0902 |
| CGGATATC | 0.174 |
| ATAGTCGA | 0.0327 |
| TCTATAAA | 0.254 |
| CCCATGCA | -0.116 |
| ACAACTAT | 0.0737 |
| CATCTTAC | 0.00084 |
| ATTGATGA | 0.18 |
| CGGCCCAA | -0.116 |

| Sequence | PBM E-score |
| --- | --- |
| CGGAACCA | 0.221 |
| TTAGTAAA | 0.211 |
| ACCGCGAG | -0.18 |
| GACTAGCC | -0.0449 |
| ACGATGGA | 0.159 |
| AAGTAGGC | -0.0115 |
| AGATGCCG | -0.054 |
| AGGGGATG | -0.276 |
| ACAGAAGA | 0.0645 |
| GTACGCTA | -0.118 |
| ACCCACAT | 0.00107 |
| CCACAAAG | 0.0384 |
| CCGAATAA | 0.268 |
| ACGGTGTG | -0.237 |
| ACATTTTG | 0.103 |
| TCCTCAGA | 0.0862 |
| CGCGCAAG | 0.00201 |
| CAACAACC | 0.119 |
| CGAGCCAC | -0.287 |
| CCTCTGAC | -0.203 |
| CTAAGTTA | 0.126 |
| AAGATCAT | 0.0744 |
| AACAGAGC | -0.14 |
| CTGCGAAG | -0.221 |
| ATAGACGC | 0.0447 |

| Sequence | PBM E-score |
| --- | --- |
| ATCAGGAA | -0.137 |
| CCGCTGCA | -0.11 |
| CTGTGACA | -0.208 |
| AACATCTG | -0.0906 |
| GGCACCCC | -0.286 |
| AGCCGAGA | -0.0181 |
| ATGCCCCA | -0.0978 |
| CGACTAGC | 0.05 |
| AGACACGG | -0.0756 |
| CTGTCTTA | -0.0519 |
| CAAGGAGG | -0.0941 |
| TCGGGAGA | -0.0164 |
| AATCTTCT | 0.0431 |
| AGAATCCG | 0.00193 |
| GAGCGTGC | -0.109 |
| ATATTTGC | 0.138 |
| AGCAGATC | -0.00869 |
| ATCGCAGG | -0.198 |
| GGATTCTA | 0.0493 |
| GGATGTAA | 0.108 |
| ATTGAGAC | -0.0256 |
| CACTTTAG | -0.0413 |
| ATCTGTTC | 0.0938 |
| CTCGTAGC | -0.133 |
| AGACGCAA | 0.0523 |

| Sequence | PBM E-score |
| --- | --- |
| CGGGCGAG | -0.104 |
| ATCGCCTG | -0.191 |
| AAATAACG | 0.129 |
| GCAGAGGC | -0.286 |
| GGGCAGAA | -0.0139 |
| CATATCTA | 0.152 |
| TGTGCAAA | -0.126 |
| CGTCTTAC | -0.00247 |
| CCCTTACG | -0.249 |
| CCGAAATC | 0.232 |
| AGCGGGTA | -0.167 |
| GGCTCAAC | -0.256 |
| CATGCCCC | -0.254 |
| TGTTGGAA | 0.063 |
| CGTCTCCC | 0.0386 |
| AACACGCA | 0.122 |
| AGTACAAT | 0.193 |
| GCATGCGC | -0.121 |
| AGACTTGA | 0.0388 |
| ACTACAGC | -0.0548 |
| CCACGAGG | -0.154 |
| AAATATAA | 0.273 |
| CTGTCCAC | -0.19 |
| GGTGGGGA | -0.0484 |
| AAACTGTA | 0.062 |

| Sequence | PBM E-score |
| --- | --- |
| ACAATTTG | 0.0489 |
| AAACGGCG | 0.0378 |
| CACTAAAC | 0.139 |
| AGTGTAAT | 0.137 |
| CCGGGCGA | 0.0467 |
| AAGCAGGG | -0.206 |
| GCATAATA | 0.265 |
| AGGACGGA | 0.0778 |
| AGCGTCGC | -0.0164 |
| ATGACACG | 0.129 |
| AAACCGAG | 0.0662 |
| AGGGCAAA | -0.079 |
| ATGTGTTC | 0.0971 |
| GCGCAAAC | -0.0496 |
| GCTGCAAC | -0.0226 |
| AGCGAGGA | -0.0182 |
| CCGGGCGC | -0.01 |
| CATACGGA | 0.303 |
| CATGAAAG | 0.0767 |
| CACATGAG | -0.239 |
| ATGCCCGC | -0.0337 |
| ACTTAAAC | 0.241 |
| TAGACGCA | 0.00598 |
| CGAGCGCA | -0.0152 |
| CAACTACC | -0.0109 |

| Sequence | PBM E-score |
| --- | --- |
| GCCAGCAC | -0.0518 |
| GTTAGGAA | 0.14 |
| TCGACGAA | -0.0884 |
| CGCACCCG | -0.201 |
| TCCGGAAA | 0.411 |
| ACTATCTC | 0.0966 |
| CGTATGTC | -0.0263 |
| AAGTTAAC | 0.142 |
| CAACTCTC | 0.0111 |
| CCAATCCC | -0.0503 |
| ACCAGTCA | -0.101 |
| CACCATAC | -0.135 |
| GTTGACGA | -0.00109 |
| ATAAATTA | 0.326 |
| GTTTCTAA | 0.132 |
| CAGTGCAA | -0.063 |
| GTTTACTA | 0.0744 |
| GGCGTTTA | -0.128 |
| TACACCCA | 0.036 |
| CAAATTTG | -0.0607 |
| ATGTTGAC | 0.0309 |
| CAGGGGGA | -0.351 |
| GAGTCTAC | -0.00601 |
| TTAATGAA | 0.26 |
| CTATCAAC | 0.208 |

| Sequence | PBM E-score |
| --- | --- |
| GCTTCCCA | -0.179 |
| AAAGCTTC | -0.0109 |
| ATATCGAT | -0.0127 |
| CTATGCTA | 0.0296 |
| GGACATCC | 0.0309 |
| CCTACACG | -0.346 |
| CCTTGCGC | -0.163 |
| CCAAAGGG | -0.121 |
| ACAGCAGA | -0.172 |
| ACACTGTC | -0.206 |
| ACGAAGAT | 0.0518 |
| ACATCTTA | 0.0365 |
| AATTTCAC | 0.188 |
| ACTCGTCT | 0.0453 |
| GCGGAGCA | 0.152 |
| AAGCACTC | 0.0626 |
| CGCATAGC | -0.188 |
| AAGGTCAG | -0.175 |
| AGTCCGCG | 0.435 |
| CGAGGGAA | -0.175 |
| CTATTGGC | -0.227 |
| GGGAACAA | 0.0455 |
| GAGTGAGC | -0.0108 |
| TCGGGGAA | 0.168 |
| CCCACGAC | -0.236 |

| Sequence | PBM E-score |
| --- | --- |
| CCAACTCC | 0.387 |
| AATTGAGC | 0.0759 |
| CGGGTTAG | -0.125 |
| AAGGCTAG | 0.0543 |
| ACCCTGTA | -0.14 |
| CGTTGGCC | -0.239 |
| ATCATGTC | 0.103 |
| ATAATAGG | 0.0771 |
| ACTGTACT | 0.029 |
| CAGAGGGG | -0.339 |
| CTCTATTA | 0.11 |
| CGTTACAG | -0.132 |
| AGGGTTCA | -0.146 |
| GTTACACA | -0.2 |
| ATCGTTAA | 0.17 |
| CTATTTTA | 0.249 |
| GTAATGTA | 0.116 |
| CCTGGTAC | -0.0792 |
| AGTGGTCC | 0.0454 |
